Results as given in US10273244B2, “Substituted hexahydropyrrolo[3,4-b]pyrroles and hexahydrocyclopenta[c]pyrroles as dopamine receptor modulators” (INDIVIOR UK LIMITED, priority 2015, dated 2019).
Where a name gives a salt, the structure may show the parent alone.

Assays:
[1] = target: human dopamine type 3 receptor (CHO-hD3 membranes) (Homo sapiens (Human), UniProt P35462); conditions: displacement of 0.3 nM [3H]-Spiperone
[2] = target: human dopamine receptor type 2, long variant (hD2L), CHO-Gα16-hD2L cells (Homo sapiens (Human), UniProt P14416); conditions: for D2 fpKi: functional pKi, FLIPR Ca2+, antagonism of dopamine EC80
UniProt P14416, sequence (P14416 whole entry): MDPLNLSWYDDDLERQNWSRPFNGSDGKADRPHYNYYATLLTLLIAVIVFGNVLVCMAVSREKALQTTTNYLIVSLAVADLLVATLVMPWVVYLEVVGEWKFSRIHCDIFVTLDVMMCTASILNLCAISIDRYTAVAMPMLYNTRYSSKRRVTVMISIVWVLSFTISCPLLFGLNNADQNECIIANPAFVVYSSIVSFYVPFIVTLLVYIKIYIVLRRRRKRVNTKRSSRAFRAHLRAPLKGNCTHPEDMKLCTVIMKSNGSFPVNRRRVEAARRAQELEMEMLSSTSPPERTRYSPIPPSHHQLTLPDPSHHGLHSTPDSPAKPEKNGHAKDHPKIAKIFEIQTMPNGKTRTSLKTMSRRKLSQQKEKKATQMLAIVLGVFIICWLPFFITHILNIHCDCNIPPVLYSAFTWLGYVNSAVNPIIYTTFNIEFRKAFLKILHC

UniProt P35462, sequence (P35462 whole entry): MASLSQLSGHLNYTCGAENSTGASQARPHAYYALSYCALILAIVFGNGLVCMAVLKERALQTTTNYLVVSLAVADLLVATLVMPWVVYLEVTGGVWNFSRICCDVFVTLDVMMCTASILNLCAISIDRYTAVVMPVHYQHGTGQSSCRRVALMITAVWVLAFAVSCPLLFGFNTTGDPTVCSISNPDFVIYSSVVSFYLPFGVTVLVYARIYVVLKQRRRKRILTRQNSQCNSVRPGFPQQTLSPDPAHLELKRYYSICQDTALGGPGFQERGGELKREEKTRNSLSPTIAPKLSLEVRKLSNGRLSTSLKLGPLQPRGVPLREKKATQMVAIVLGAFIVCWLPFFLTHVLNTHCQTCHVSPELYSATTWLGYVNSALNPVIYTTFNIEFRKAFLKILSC

Cn1c(SCCCN2CC3CCN(c4ccccc4C#N)C3C2)nnc1-c1cnccn1 (stereo not drawn) [Example 110, 2-[5-(3-{[4-methyl-5-(pyrazin-2-yl)-4H-1,2,4-triazol-3-yl]sulfanyl}propyl)-octahydropyrrolo[3,4-b]pyrrol-1-yl]benzonitrile]
D3 pKi [1]: 8.15 | D2 fpKi [2]: 6.62

Cn1c(SCCCN2CC3CCN(c4ccc(OC(F)(F)F)cc4)C3C2)nnc1-c1cnccn1 (stereo not drawn) [Example 97, 2-{4-methyl-5-[(3-{1-[4-(trifluoromethoxy)phenyl]-octahydropyrrolo[3,4-b]pyrrol-5-yl}propyl)sulfanyl]-4H-1,2,4-triazol-3-yl}pyrazine]
D3 pKi [1]: 7.95 | D2 fpKi [2]: 6.72

Cl.Cl.Cn1c(SCCCN2C[C@H]3CCN(c4ccc(C(F)(F)F)cc4)[C@H]3C2)nnc1N1CCOCC1 [Example 85, 4-[5-({3-[(3aR,6aR or 3aS,6aS)-1-[4-(trifluoromethyl)phenyl]-octahydropyrrolo[3,4-b]pyrrol-5-yl]propyl}sulfanyl)-4-methyl-4H-1,2,4-triazol-3-yl]morpholine dihydrochloride]
D3 pKi [1]: 8.70 | D2 fpKi [2]: 6.77

Cn1c(SCCCN2CC3CCN(c4ccc(C(F)(F)F)cc4)C3C2)nnc1-c1cncnc1 (stereo not drawn) [Example 88, 5-{4-methyl-5-[(3-{1-[4-(trifluoromethyl)phenyl]-octahydropyrrolo[2,3-c]pyrrol-5-yl}propyl)sulfanyl]-4H-1,2,4-triazol-3-yl}pyrimidine]
D3 pKi [1]: 7.33 | D2 fpKi [2]: 5.98

Cc1ncoc1-c1nnc(SCCCN2CC3CCN(c4cccc(C#N)c4)C3C2)n1C (stereo not drawn) [Example 7, 3-[5-(3-{[4-methyl-5-(4-methyl-1,3-oxazol-5-yl)-4H-1,2,4-triazol-3-yl]sulfanyl}propyl)-octahydropyrrolo[2,3-c]pyrrol-1-yl]benzonitrile]
D3 pKi [1]: 8.85 | D2 fpKi [2]: 8.24

Cc1ncoc1-c1nnc(SCCCN2CC3CCN(c4cccc(F)c4)C3C2)n1C (stereo not drawn) [Example 30, 3-({3-[1-(3-fluorophenyl)-octahydropyrrolo[3,4-b]pyrrol-5-yl]propyl}sulfanyl)-4-methyl-5-(4-methyl-1,3-oxazol-5-yl)-4H-1,2,4-triazole]
D3 pKi [1]: 8.53 | D2 fpKi [2]: 7.20

Cn1c(SCCCN2C[C@H]3CCN(c4ccc(C(F)(F)F)cc4)[C@H]3C2)nnc1[C@H]1COCCO1 (single isomer, unassigned) [Example 79, 3-({3-[(3aR,6aR or 3aS,6aS)-1-[4-(trifluoromethyl)phenyl]-octahydropyrrolo[3,4-b]pyrrol-5-yl]propyl}sulfanyl)-5-[(2R or 2S)-1,4-dioxan-2-yl]-4-methyl-4H-1,2,4-triazole dihydrochloride]
Ki [2]: 871 nM

Cc1ncoc1-c1nnc(SCCCN2C[C@@H]3CCN(c4ccc(F)cc4)[C@@H]3C2)n1C (single isomer, unassigned) [Example 24]
D2 fpKi [2]: 6.53

Cc1ncoc1-c1nnc(SCCCN2C[C@H]3CC[C@H](c4ccc(C(F)(F)F)cc4)[C@H]3C2)n1C (single isomer, unassigned) [Example 226, 4-methyl-3-(4-methyl-1,3-oxazol-5-yl)-5-({3-[(4S or 4R)-4-[4-(trifluoromethyl)phenyl]-octahydrocyclopenta[c]pyrrol-2-yl]propyl}sulfanyl)-4H-1,2,4-triazole hydrochloride]
Ki [2]: 151 nM

Cn1c(SCCCN2C[C@H]3CCN(c4ccc(C(F)(F)F)cc4)[C@H]3C2)nnc1[C@@H]1COCCO1 (single isomer, unassigned) [Example 76, 3-({3-[(3aR,6aR or 3aS,6aS)-1-[4-(trifluoromethyl)phenyl]-octahydropyrrolo[3,4-b]pyrrol-5-yl]propyl}sulfanyl)-5-[(2R or 2S)-1,4-dioxan-2-yl]-4-methyl-4H-1,2,4-triazole dihydrochloride]
Ki [2]: 138 nM

Cn1c(SCCCN2C[C@H]3CCN(c4ccc(C(F)(F)F)cc4)[C@H]3C2)nnc1-c1cnccn1 (single isomer, unassigned) [Example 93, 2-[5-({3-[(3aR,6aR or 3aS,6aS)-1-[4-(trifluoromethyl)phenyl]-octahydropyrrolo[2,3-c]pyrrol-5-yl]propyl}sulfanyl)-4-methyl-4H-1,2,4-triazol-3-yl]pyrazine]
Ki [2]: 141 nM

Cc1ncoc1-c1nnc(SCCCN2CC3CCN(c4ccccc4)C3C2)n1C (stereo not drawn) [Example 12, 4-methyl-3-(4-methyl-1,3-oxazol-5-yl)-5-[(3-{1-phenyl-octahydropyrrolo-[2,3-c]pyrrol-5-yl}propyl)sulfanyl]-4H-1,2,4-triazole]
D2 fpKi [2]: 6.73

Cn1c(SCCCN2C[C@H]3CCN(c4cccnc4)[C@H]3C2)nnc1C1CCCCC1 (single isomer, unassigned) [Example 70, 3-[(3aR,6aR or 3aS,6aS)-5-{3-[(5-cyclohexyl-4-methyl-4H-1,2,4-triazol-3-yl)sulfanyl]propyl}-octahydropyrrolo[2,3-c]pyrrol-1-yl]pyridine]
Ki [2]: > 10000 nM

Cn1c(SCCCN2C[C@@H]3CCN(c4ccc(C(F)(F)F)cc4)[C@@H]3C2)nnc1[C@@H]1COCCO1 (single isomer, unassigned) [Example 77, 3-({3-[(3aR,6aR or 3aS,6aS)-1-[4-(trifluoromethyl)phenyl]-octahydropyrrolo[3,4-b]pyrrol-5-yl]propyl}sulfanyl)-5-[(2R or 2S)-1,4-dioxan-2-yl]-4-methyl-4H-1,2,4-triazole dihydrochloride]
Ki [2]: 1230 nM

Cn1c(SCCCN2C[C@H]3CCN(c4ccc(C(F)(F)F)cc4)[C@H]3C2)nnc1C1CCOCC1 (single isomer, unassigned) [Example 35, 3-({3-[(3aR,6aR or 3aS,6aS)-1-[4-(trifluoromethyl)phenyl]-octahydropyrrolo[2,3-c]pyrrol-5-yl]propyl}sulfanyl)-4-methyl-5-(oxan-4-yl)-4H-1,2,4-triazole]
Ki [2]: 468 nM

Cn1c(SCCCN2C[C@@H]3CCN(c4ccc(F)cc4F)[C@@H]3C2)nnc1-c1cnccn1 (single isomer, unassigned) [Example 105, 2-[5-({3-[(3aS,6aS or 3aR,6aR)-1-(2,4-difluorophenyl)-octahydropyrrolo[2,3-c]pyrrol-5-yl]propyl}sulfanyl)-4-methyl-4H-1,2,4-triazol-3-yl]pyrazine dihydrochloride]
Ki [2]: 776 nM

Cn1c(SCCCN2C[C@H]3CCN(c4ccc(F)cc4F)[C@H]3C2)nnc1-c1cnccn1 (single isomer, unassigned) [Example 106, 2-[5-({3-[(3aR,6aR or 3aS,6aS)-1-(2,4-difluorophenyl)-octahydropyrrolo[2,3-c]pyrrol-5-yl]propyl}sulfanyl)-4-methyl-4H-1,2,4-triazol-3-yl]pyrazine dihydrochloride]
Ki [2]: 295 nM

Cn1c(SCCCN2C[C@@H]3CCN(c4ccc(C(F)(F)F)cc4)[C@@H]3C2)nnc1C1CCOCC1 (single isomer, unassigned) [Example 34, 3-({3-[(3aS,6aS or 3aR,6aR)-1-[4-(trifluoromethyl)phenyl]-octahydropyrrolo[2,3-c]pyrrol-5-yl]propyl}sulfanyl)-4-methyl-5-(oxan-4-yl)-4H-1,2,4-triazole]
Ki [2]: 457 nM
